# Source: the supplement of paper PMC6531468
# The list shows a part of the results. Values come from read counts of a selection and are noisy. Each score is taken over the longer molecules that contain the sequence shown.
# Target: IMP3 full-length (UniProt O00425)
# Experiment: 6-mer SELEX enrichment z-score vs GST control; IMP3 is the RNA-binding protein IGF2BP3; higher = more enriched by binding
# Settings: construct: FL IMP3 (1-579); SELEX round: R4
# Description: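 SELEX-seq with GST-tagged full-length IMP3 and an N40 RNA pool, round 4. Each 6-mer is scored as an enrichment z-score of sequence tags containing it, normalised to the matching GST SELEX round. RNA written as DNA (T = U).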
# Sequence of UniProt O00425 (O00425 whole entry): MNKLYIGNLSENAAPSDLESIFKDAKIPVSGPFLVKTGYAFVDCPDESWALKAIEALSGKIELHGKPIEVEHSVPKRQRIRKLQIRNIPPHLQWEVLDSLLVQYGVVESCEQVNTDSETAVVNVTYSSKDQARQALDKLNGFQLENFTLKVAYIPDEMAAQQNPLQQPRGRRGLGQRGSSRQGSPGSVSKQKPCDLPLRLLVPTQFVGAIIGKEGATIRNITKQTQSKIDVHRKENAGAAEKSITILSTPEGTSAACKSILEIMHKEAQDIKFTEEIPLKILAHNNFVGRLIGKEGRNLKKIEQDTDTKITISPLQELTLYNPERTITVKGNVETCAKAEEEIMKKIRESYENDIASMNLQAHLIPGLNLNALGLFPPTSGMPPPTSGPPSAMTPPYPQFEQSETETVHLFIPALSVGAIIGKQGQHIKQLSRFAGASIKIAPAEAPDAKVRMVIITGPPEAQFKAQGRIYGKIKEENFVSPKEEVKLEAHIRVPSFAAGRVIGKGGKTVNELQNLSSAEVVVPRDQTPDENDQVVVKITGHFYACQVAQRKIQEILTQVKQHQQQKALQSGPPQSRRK
row,Sequence,6-mer SELEX enrichment z-score
1,AACTAA,-1.09
2,CATCGG,1.52
3,TGGAGC,-0.24
4,ACGCGG,0.64
5,ATCCAC,-0.528
6,TACGGG,0.169
7,AGCCTG,-0.635
8,CGCCGG,0.663
9,GACAAT,0.397
10,TCGTCA,0.374
11,CTGGAG,-0.205
12,GTGCCT,-0.494
13,CTTGTA,-0.248
14,CCGTTG,-0.284
15,TGACTG,-0.522
16,TGTCAT,0.443
17,GGATTC,0.284
18,CGCGCC,0.301
19,AGAGGA,0.156
20,CAAGAT,-0.212

row,Sequence,6-mer SELEX enrichment z-score
1,ATGAAT,0.04
2,CCTCTC,-0.304
3,TACAAA,0.167
4,GCTAGG,0.191
5,GCGAGA,-0.211
6,GTTTTC,-0.009
7,TGGCCT,-0.039
8,CTCGCA,0.199
9,AGGCCT,0.109
10,GTCTGA,-0.166
11,GGCGAC,0.867
12,AAATAT,-0.33
13,AGATTA,-0.064
14,CAGTCT,0.509
15,GAAGGG,0.096
16,CTTATC,0.065
17,TCAATA,1.15
18,TGTCCT,-0.126
19,CGCATG,0.904
20,CCCAGC,-0.834
